The whole screen tested about 48,000 compounds, of which about 450 (0.94%) were called active. About 19% were inconclusive and are not listed. Calls come from the whole dose curve; as a rule, active = well fitted inhibition curve with a large enough effect; inconclusive = small, poorly fitted or top-dose-only effect; inactive = no such curve, though single readings can be large or run the other way. The list shows a part of the results.

The assay is described as follows: Primary qHTS for Identification of Small Molecule Inhibitors of Huntingtin Promoter Activity. Note: nearly all actives have a fitted effect of over 50% in size. The conditions noted are these: HEK293 HTT promoter firefly luciferase reporter (activity 0% = vehicle and -100% = no light), 24 h; series mostly up to 57.5 µM; activity change, negative = inhibition: at the top concentration. In short, it runs like this:
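Quantitative HTS used concentration series of up to 57.5 uM final on HEK293 luciferase reporter cells, 24 h at 37 degrees C. Readout was Dual-Glo firefly luminescence.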
Background: qHTS replaces the single test concentration by a dilution series.
On to `CCCOc1ccc(Oc2nc(NCC(C)C)nc(N3CCOCC3)n2)nn1`, for which the “activity change, negative = inhibition” value is inactive: 14.6%.
Consider `O=C(O)CCn1cnc2onc(-c3cc(F)cc(F)c3)c2c1=O`, for which the “activity change, negative = inhibition” value was inactive: -17.8%.
For the compound `CC(C)(C)NC(=O)[C@H]1CC[C@H]2[C@@H]3CC[C@H]4NC(=O)C=C[C@]4(C)[C@H]3CC[C@]12C`, the “activity change, negative = inhibition” value was inactive: -5.5%.
With `COc1cccc(NC(=O)C2CCCN(S(=O)(=O)c3ccc4[nH]c(=O)ccc4c3)C2)c1` (configuration not stated), the “activity change, negative = inhibition” value is inactive: -29.7%.
For the compound `O=C(Nc1ccc(OCc2cc(=O)n3c4c(sc3n2)CCCC4)cc1)c1ccccc1`, the “activity change, negative = inhibition” value is inactive: -13.9%.
Take `CC1CCc2nc3ncn(Cc4ccccc4F)c(=O)c3cc2C1` (configuration not stated): the “activity change, negative = inhibition” value was inactive: -0.424%.
The result for `CCOc1ccc(OCC)c(NS(=O)(=O)c2c(C(=O)N3CCC(C)CC3)c(C)n(C)c2C)c1` reads inactive: -15.9%; that for `COc1ccc(N2CC(NC(=O)c3ccc4c(c3)OCO4)CC2=O)cc1` (configuration not stated), inactive: -10.6%.
For `COc1ccc(NC(=O)CN(c2ccc(C)cc2)S(=O)(=O)c2cccc3nonc23)cc1OC`, the “activity change, negative = inhibition” value was inactive: -3.55%.
Next, `Cc1ccc(-n2c(SCC(=O)O)nc3sc4c(c3c2=O)CCCC4)cc1`: inactive: -2.46%; `CC(C)NC(=O)C1CCC(Cn2c(=O)c3sccc3n(CC(=O)NCc3ccccc3)c2=O)CC1` (configuration not stated): inactive: -1.67%; `COc1ccc(NC(=O)Cn2cnc3c(oc4ccccc43)c2=O)cc1OC`: inactive: 5.28%.
Next, `CCOC(=O)c1c(-c2ccccc2)csc1NC(=O)c1cc(-c2ccc(F)cc2)on1`: inactive: 0.177%.
On to `O=C(NCc1ccc2c(c1)OCO2)c1ccc2c(c1)N(Cc1ccccc1)C(=O)c1ccccc1S2=O` (configuration not stated), for which the “activity change, negative = inhibition” value is inactive: -6.79%.
Turning to `CC(C)n1cnc(S(=O)(=O)N2CCCC(C(=O)NCc3ccccc3Cl)C2)c1` (configuration not stated), the “activity change, negative = inhibition” value was inactive: -26%.
Turning to `CN(c1ccccc1)S(=O)(=O)c1nnc(NC(=O)c2ccccc2)s1`, the “activity change, negative = inhibition” value is inactive: -7.49%.
Take `CCOc1ccc(C(=O)c2c(N)c(-c3nc(-c4ccc5c(c4)OCO5)cs3)c3ccccn23)cc1`: the “activity change, negative = inhibition” value is inactive: -1.48%.
Consider `COC(=O)Cn1c(=O)c2cccn2c2cccnc21`, for which the “activity change, negative = inhibition” value was inactive: -15.8%.
The result for `Cc1cc(C(=O)Nc2ccc(C(C)C)cc2)c2c(C)nn(-c3ccccc3)c2n1` reads inactive: -0.459%; that for `COc1cccc(CNC(=O)CSc2c3c(nc4cc(Cl)ccc24)CCCC3)c1`, inactive: -14.2%.
The result for `CN(C)CCCN(C(=O)c1ccc2c(c1)OCCO2)c1nc2ccccc2s1` reads inactive: -31.8%; that for `COc1ccc(Cn2c(=O)c3oc4ccccc4c3n(Cc3cccc(C)c3)c2=O)cc1`, inactive: -11.8%; that for `CCOc1ccccc1NC(=O)Cn1cc(C(=O)c2ccc(Cl)cc2)c(=O)c2ccc(C)nc21`, inactive: -1.03%.
On to `Cc1cccc2c(=O)cc(CSc3ccccc3NC(=O)c3cccc(F)c3)[nH]c12`, for which the “activity change, negative = inhibition” value is inactive: 3.19%.
For `COc1ccccc1CNc1ccc(-c2nc(-c3ccco3)no2)cc1[N+](=O)[O-]`, the “activity change, negative = inhibition” value was inactive: -5.64%.
For the compound `Cc1cc2nn(-c3ccc(F)cc3)nc2cc1NC(=O)c1cccc2ccccc12`, the “activity change, negative = inhibition” value is inactive: 5.3%.
Next, `O=C(Nc1nnc(S(=O)(=O)N2CCOCC2)s1)c1ccccc1Cl`: inactive: -13.3%.
Consider `Nc1nc(N)c2nc(-c3ccccc3)c(N)nc2n1`, for which the “activity change, negative = inhibition” value was inactive: 25.6%.
Regarding `CC(=O)Nc1ccc(NC(=O)C2CCCN2S(=O)(=O)c2ccc3c(c2)CCCC(=O)N3)cc1` (configuration not stated), the “activity change, negative = inhibition” value was inactive: -7.05%.
As for `COc1ccc(OC)c(CCNC(=O)c2cc3c(=O)oc4ccc(C)cc4c3s2)c1`, the “activity change, negative = inhibition” value was inactive: -6.19%.
Regarding `O=C(Nc1ccc2nc(SCc3ccccc3)sc2c1)c1ccccc1F`, the “activity change, negative = inhibition” value is inactive: -26.3%.
As to `Cc1ccc(OCC(=O)Nc2ccc3c(c2)nc(CCNC(=O)c2ccco2)n3C)cc1`, the “activity change, negative = inhibition” value was inactive: -17.2%.
Next, `COc1ccc(N2CCN(C(=O)CN3C(=O)CSc4c3c(C)nn4-c3ccccc3)CC2)cc1`: inactive: -15.9%.
Regarding `O=C(Nc1ccc2oc(-c3cccnc3)nc2c1)c1ccc(-c2ccc(OC(F)(F)F)cc2)o1`, the “activity change, negative = inhibition” value is inactive: -21.2%.
Regarding `Cc1ccccc1N1CC(C(=O)Nc2ccc(Br)cc2)CC1=O` (configuration not stated), the “activity change, negative = inhibition” value was inactive: -20.2%.
For the compound `COCCCNc1nc2cc(OC)c(OC)cc2c2nc(-c3ccccc3)nn12`, the “activity change, negative = inhibition” value was inactive: -6.14%.
`CCn1c(=O)c(=O)n(CC)c2cc(N3CCCCC3)c(NC(=O)c3ccc(Cl)cc3)cc21`: the “activity change, negative = inhibition” value is inactive: 2.87%.
For the compound `Cc1nnc(N2CCCC(C(=O)NCc3ccccc3F)C2)c2nn(-c3ccc(Cl)cc3)c(C)c12` (configuration not stated), the “activity change, negative = inhibition” value is inactive: -0.0098%.
The result for `COc1ccc(C(=O)NCc2nnc(SCC(=O)Nc3ccccc3)n2-c2ccccc2)cc1` reads inactive: -1.84%.
For the compound `COc1cc(Cl)c(C)cc1NC(=O)c1ccc2c(SCC(=O)O)c3c(nc2c1)CCCC3`, the “activity change, negative = inhibition” value is inactive: 9.35%.
For the compound `O=C(CSc1n[nH]c(-c2ccccc2)n1)NCCCc1ccccc1`, the “activity change, negative = inhibition” value is inactive: -24.4%.
As for `CCN(CC)CCNC(=O)c1ccc2c(c1)NC(=O)C(CS(=O)(=O)Cc1cccc(Br)c1)N2` (configuration not stated), the “activity change, negative = inhibition” value is inactive: -7.26%.
Regarding `COc1ccc(-c2nc3cc(C(C)C)ccc3o2)cc1NC(=O)COc1ccc(C)cc1C`, the “activity change, negative = inhibition” value was inactive: 1.51%.
In the case of `O=C(Cn1c(=O)c2ccccc2n(CC(=O)Nc2ccc(F)cc2F)c1=O)NCCc1ccccc1`, the “activity change, negative = inhibition” value was inactive: -7.17%.
With `Cc1ccc(C)c(Nc2ncnc3onc(C)c23)c1`, the “activity change, negative = inhibition” value was inactive: -25.5%.
Consider `COc1ccc(NC(=O)CCSc2nc(-c3ccco3)cc(C(F)(F)F)n2)cc1`, for which the “activity change, negative = inhibition” value is inactive: -17.5%.
On to `COc1ccc(NC(=O)CSc2ncccc2C(=O)O)cc1OC`, for which the “activity change, negative = inhibition” value is inactive: -3.92%.
For the compound `CCN(C(=O)c1cc2c(=O)oc3ccc(C)cc3c2s1)c1cc(OC)ccc1OC`, the “activity change, negative = inhibition” value was inactive: -33.7%.
As for `CCC1CCCCN1CCCNC(=O)c1ccc2c(c1)N(Cc1ccccc1)C(=O)c1ccccc1S2(=O)=O` (configuration not stated), the “activity change, negative = inhibition” value was inactive: -22.3%.
Next, `CCn1nc(C)c2c(-c3ccccc3)cc(=O)n(C(C)C(=O)NCc3cccc(OC)c3)c21` (configuration not stated): inactive: -9.3%; `CCc1ccc(OCCCn2c(-c3ccc(Cl)cc3)nc3ccccc3c2=O)cc1`: inactive: -20.6%; `Cc1ccc(-c2nc3scc(CCNS(=O)(=O)c4ccc(F)c(C)c4)n3n2)cc1`: inactive: -26.1%.
As to `CCN(CC)c1ccc(NC(=O)c2cc(C)nc3c2c(C)nn3-c2cccc(F)c2)c(C)c1`, the “activity change, negative = inhibition” value was inactive: -9.11%.
For the compound `Cc1ccc(Cl)cc1NC(=O)CSc1ccc(C(=O)O)cn1`, the “activity change, negative = inhibition” value was inactive: -5.74%.
For the compound `c1ccc(-c2nnc(CN3CCN(c4ccccn4)CC3)o2)cc1`, the “activity change, negative = inhibition” value was inactive: 4.14%.
As for `Cc1ccc(OCC(=O)OCc2cc(=O)n3nc(C4CCCCC4)sc3n2)cc1C`, the “activity change, negative = inhibition” value is inactive: -26.6%.
In the case of `O=C(c1[nH]c2ccccc2c1Sc1ccc(Cl)cc1)N1CCCCC1`, the “activity change, negative = inhibition” value is inactive: -29.3%.
Next, `O=C1CC(c2ccccc2)Sc2nc(-c3ccc(F)cc3)nn21` (configuration not stated): inactive: 0.177%; `CCOc1ccccc1CNCc1c(C(=O)O)c(C)n(Cc2ccc(Cl)cc2)c1C`: inactive: 14.5%; `CCC1CN(C(=O)N2CCC(C(=O)Nc3cc(C)ccc3C)CC2)c2ccccc2O1` (configuration not stated): inactive: -10.6%.
As for `CCCCOc1ccc(C(=O)CCN2CCCCC2)cc1`, the “activity change, negative = inhibition” value is inactive: 10.3%.
`COc1cc(C2c3c(oc4ccccc4c3=O)C(=O)N2c2nncs2)cc(OC)c1OC` (configuration not stated): the “activity change, negative = inhibition” value is inactive: -6.17%.

Source of the values: PubChem BioAssay AID1508623 (National Center for Advancing Translational Sciences (NCATS), 2021).
